# From PubChem BioAssay AID1645882 (National Center for Advancing Translational Sciences (NCATS), 2021)
# Hit rate of the full screen: of about 16,000 compounds, about 120 (0.75%) were called active. Not shown: some 4% with an inconclusive outcome. The call rests on the fitted dose curve; in most records, active means well fitted inhibition curve with a large enough effect; inconclusive means small, poorly fitted or top-dose-only effect; inactive means no such curve, though single readings can be large or run the other way. The list shows a part of the results. *1 amine or outer side, *2 acyl side, *3 side chain or, on linkers, in order; H or OH if unused. Where a SMILES comes first, the peptide text is derived from it. Bridges are numbered along the chain shown (N, C = ends). [ ]: non-standard residue; d: D form. The star is where a group is joined. ξ: configuration not given here. X2 = CC[C@@H](C)[C@@H](N)C1=N[C@H](C(=O)*)CS1; ΔAla(E,3-NHCONH2) = NC(=O)N/C=C(/N)C(=O)O; X11 = NC1=NCCC(C(N[*:1])C(=O)[*:2])N1; d(aIle) = CC[C@H](C)[C@@H](N)C(=O)O; dOrn = NCCC[C@@H](N)C(=O)O; X4 = CC[C@H](C)CCCCC(=O)*; ξβ3hOrn = NCCCC(N)CC(=O)*; Dab = NCC[C@H](N)C(=O)O; Dap = NC[CH](N)C(=O)O
# Target: Rap guanine nucleotide exchange factor 3 (Homo sapiens) (UniProt O95398)
# Test: Validation qHTS for antagonist of cAMP-regulated guanine nucleotide exchange factor 3 (EPAC1); further: nearly all actives have a fitted effect of over 75% in size
# Conditions: EPAC1 Rap1B-BODIPY-GDP exchange, fluorescence; series mostly up to 150 µM; activity change, negative = inhibition: at the top concentration
# How it was run: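 EPAC1 (100 nM) mixed with 250 nM RAP1B-BODIPY-GDP and 50 uM GDP; compounds in concentration series, 5 min at room temperature. Fluorescence (ex 480/em 540 nm) read every 5 min for 30 min; normalized to ATA control and DMSO.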
# Sequence of UniProt O95398 (O95398 whole entry, looked up): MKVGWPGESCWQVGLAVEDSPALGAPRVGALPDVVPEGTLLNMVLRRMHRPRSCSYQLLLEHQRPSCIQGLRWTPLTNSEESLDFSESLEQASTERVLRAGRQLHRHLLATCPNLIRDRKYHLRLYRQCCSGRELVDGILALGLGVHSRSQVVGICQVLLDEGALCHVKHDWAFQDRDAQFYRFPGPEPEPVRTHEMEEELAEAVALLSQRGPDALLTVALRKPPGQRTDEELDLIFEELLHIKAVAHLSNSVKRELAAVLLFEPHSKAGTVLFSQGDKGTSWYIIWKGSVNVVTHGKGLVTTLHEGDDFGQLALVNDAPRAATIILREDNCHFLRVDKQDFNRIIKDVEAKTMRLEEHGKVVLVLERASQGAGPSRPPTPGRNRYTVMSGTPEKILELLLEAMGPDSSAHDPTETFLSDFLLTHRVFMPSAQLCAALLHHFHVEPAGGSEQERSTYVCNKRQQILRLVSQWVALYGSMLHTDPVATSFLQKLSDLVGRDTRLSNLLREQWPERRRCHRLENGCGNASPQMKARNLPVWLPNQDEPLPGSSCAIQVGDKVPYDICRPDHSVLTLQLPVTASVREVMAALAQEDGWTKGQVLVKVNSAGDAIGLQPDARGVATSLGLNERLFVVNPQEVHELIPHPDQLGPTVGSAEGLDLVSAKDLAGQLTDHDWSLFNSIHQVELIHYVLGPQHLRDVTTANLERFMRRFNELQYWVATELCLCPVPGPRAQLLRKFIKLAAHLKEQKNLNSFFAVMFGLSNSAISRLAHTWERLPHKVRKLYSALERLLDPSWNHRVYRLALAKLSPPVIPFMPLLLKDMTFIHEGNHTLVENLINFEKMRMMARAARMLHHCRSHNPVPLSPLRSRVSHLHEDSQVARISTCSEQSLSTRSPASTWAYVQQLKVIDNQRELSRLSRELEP
row,Compound,"activity change, negative = inhibition"
1,CCC1(C2CCN(C(=O)c3ccccc3C(C)=O)CC2)NC(=O)N(CCc2scnc2C)C1=O (configuration not stated),inactive: 9.64%
2,COc1ccc(C(=O)N2CCC3(CCN(Cc4ccncc4)CC3)CC2)cc1,inactive: 13.7%
3,CC(=O)Nc1c(I)c(C(=O)O)c(I)c(N(C)C(C)=O)c1I,inactive: 11.8%
4,CC(=O)N[C@H](CS)C(=O)O,inactive: -0.582%
5,CC(C)(C)NC[C@H](O)c1ccc(O)c(CO)c1,inactive: 1.88%
6,Cc1cc2c(cc1C)N[C@]1(C[C@H]3CCCC(=O)N4CC[C@@H](C1)[C@@H]34)C(=Nc1ccccc1C)N2,inactive: 8.32%
7,CN(CC(=O)O)c1ccc(C=O)cc1,inactive: -3.03%
8,C[C@@](N)(C(=O)O)c1ccc(S(=O)(=O)O)cc1,inactive: 6.23%
9,CCOc1ccccc1OCCN[C@H](C)Cc1ccc(OC)c(S(N)(=O)=O)c1,inactive: 14.1%
10,Cc1cc2c(c(-c3cnccn3)c1)OC(CNC(=O)c1c(F)cccc1Cl)C2 (configuration not stated),inactive: 15.3%
11,CCCCCCCCCCCCC[N+](C)(C)Cc1ccccc1,inactive: 0.354%
12,CCCCCCCCCCC/C=C\C(C)(C)/C=C\CCCC(=O)O,inactive: 19.2% [at 15.3 µM]
13,Nc1nc2c(ncn2C2OC(CO)CC2O)c(=O)[nH]1 (configuration not stated),inactive: 18.3%
14,CC(C)[N+]1(C)C2CCC1CC(OC(=O)C(CO)c1ccccc1)C2 (configuration not stated),inactive
15,C(=C\c1ccnc2ccccc12)/c1ccc(N2CCNCC2)cc1,inactive: 13.8%
16,O=S(=O)(O)CCS,inactive
17,O=S1(=O)CCOCCCN1Cc1ccccc1,inactive: 0.969%
18,"NCCCC(N)CC(=O)NCC1NC(=O)C(CO)NC(=O)C(N)CNC(=O)C(C2CCN=C(N)N2)NC(=O)/C(=C\NC(N)=O)NC1=O (stereo not drawn) (H-[Dap]S[Dap](ξβ3hOrn)[ΔAla(E,3-NHCONH2)][X11]; lactam 1-C; configuration not given here)",inactive: 10.9%
19,CCn1cc(C(=O)O)c(=O)c2cnc(N3CCCC3)nc21,inactive
20,O=C(c1ccncc1)N1CCC2(CC1)CCN(c1ccccc1)CC2,inactive: 18.3%
21,CCOC(=O)OC(C)OC1=C(C(=O)Nc2ccccn2)N(C)S(=O)(=O)c2ccccc21 (configuration not stated),inactive: 1.46%
22,CC(=O)[C@H]1CC[C@H]2[C@@H]3C[C@H](C)C4=CC(=O)CC[C@]4(C)[C@H]3[C@@H](O)C[C@]12C,inactive: 11.1% [at 75.8 µM]
23,[N-]=[N+]=N[C@@H](CCN1CC[C@H](NC(=O)OCc2ccccc2)CCC1=O)c1ccccc1,inactive: -8.2%

row,Compound,"activity change, negative = inhibition"
1,COCCn1c(=O)c(-c2cccs2)nc2cnc(N3CCN(C)CC3)nc21,inactive: 2.05%
2,N#Cc1ccc(CN2CCC3(CCNCC3)CC2)cc1,inactive: 7.55%
3,C[C@]12CC[C@@H]3c4ccc(O)cc4CC[C@H]3[C@@H]1CC[C@@H]2OP(=O)(O)O,inactive: -2.16%
4,COC1C(O)CC(=O)OC(C)C/C=C/C=C/[C@@H](OC2CCC(N(C)C)C(C)O2)C(C)C[C@@H](CC=O)[C@@H]1O[C@H]1OC(C)[C@H](O[C@@H]2C[C@@](C)(O)C(O)C(C)O2)C(N(C)C)C1O (some centres not stated),inactive: -7.87%
5,COc1ccc(-c2nc3cnc(N4CCOCC4)nc3n(C[C@H]3CCCO3)c2=O)cc1,inactive: 0.982%
6,COC(=O)c1c(C)cc(O)cc1O,inactive: 7.49%
7,O=Cc1ccc2[nH]ccc2c1,inactive: 26.2%
8,COc1c(CO)cc(CO)cc(CO)c1=O,inactive: 17.1%
9,N#CCCn1c(=O)c(-c2ccccc2)nc2cnc(N3CCOCC3)nc21,inactive: -10.1%
10,Cc1cc(O)cc2c1O[C@](C)(CCC[C@H](C)CCC[C@H](C)CCCC(C)C)CC2,inactive
11,CCCCNC(=O)NS(=O)(=O)c1ccc(C)cc1,inactive
12,Nc1c2ccccc2nc2ccccc12 (tested in a mixture with another compound),inactive: -20.2%
13,COc1cccc(CN(C)C(=O)c2cnn(-c3nccc(-c4ccc5c(c4)OCO5)n3)c2C)c1,inactive: 24.9%
14,COc1ccc2[nH]cc(CCNc3ncncc3-c3ccc(N(C)C)cc3)c2c1,inactive: -16.3%
15,COc1ccc(-c2oc3ccccc3c(=O)c2O)cc1OC,inactive: -11.7%
16,Cc1c(C(=O)NN2CCOCC2)nn(-c2ccc(Cl)cc2Cl)c1-c1ccc(I)cc1,inactive: 8.58%
17,CCN1CC(CCN2CCOCC2)C(c2ccccc2)(c2ccccc2)C1=O (configuration not stated),inactive: 2.93%
18,N[C@@H](C(=O)N[C@@H]1C(=O)N2C(C(=O)O)=C(CSc3cn[nH]n3)CS[C@H]12)c1ccc(O)cc1,inactive: 38.8%
19,CCNc1ncc2nc(-c3cccc(C#N)c3)c(=O)n(CCC#N)c2n1,inactive: 17.7%
20,N[C@H](Cc1ccc(Cl)cc1)C(=O)O,inactive: 9.73%
21,O=C(NCC1Cc2cc(-c3cnc4ccccc4c3)cc(F)c2O1)c1cnsn1 (configuration not stated),inactive: 4%
22,COc1ccccc1C1CN(Cc2cn(C)nc2C)Cc2ccccc2O1 (configuration not stated),inactive: 0.614%
23,COc1ccc(-c2cc(=O)c3ccc(O)cc3o2)cc1,inactive: 24.3%

row,Compound,"activity change, negative = inhibition"
1,Cc1cc(C)c2ccccc2n1,inactive: 17.4%
2,COCCn1c(=O)c(CCc2ccccc2)nc2cncnc21,inactive: -11.2%
3,Cc1cnc(CNc2nc(-c3ccccc3C)nc3ccccc23)cn1,inactive: -3.8%
4,OC1CCN(Cc2ccc3c(c2)CN(C/C=C/c2ccco2)CCO3)CC1,inactive: 18.6%
5,Cc1noc(C)c1C(=O)N1CCC2(CC1)CCN(c1cccc(-c3ccccc3)c1)CC2,inactive: -22.8%
6,CC1CCC2(C(=O)O)CCC3(C)C(=CCC4C3(C)CCC3[C@@]4(C)CC(O)C(O)[C@@]3(C)CO)C2C1C (some centres not stated),inactive: 4.26%
7,COc1ccc2nc(NC(=O)Nc3ccccc3)sc2c1,inactive: 9.71%
8,CS(=O)(=O)Nc1cccc(-c2ccc3ncnc(NCc4cccnc4)c3c2)c1,inactive: 1.9%
9,Cc1ccccc1-c1cc(NCc2ccccc2)ncn1,inactive: 9.62%
10,CC(=O)NCCNc1nc(-c2ccccc2C(F)(F)F)nc2ccccc12,inactive: 11.1%
11,Nc1ncnc2c1ncn2[C@@H]1O[C@H](COP(=O)(O)OP(=O)(O)OP(=O)(O)O)[C@@H](O)[C@H]1O,inactive: -1.09%
12,CCC(=O)O[C@]1(C(=O)CCl)[C@@H](C)C[C@H]2[C@@H]3C[C@H](F)C4=CC(=O)C=C[C@]4(C)[C@@]3(F)[C@@H](O)C[C@@]21C,inactive: -8.52%
13,CC(C)Oc1ccc2c(=O)c3cc(C(=O)O)ccc3oc2c1,inactive: 3.91%
14,CCOC(=O)/C=C/c1ccc2c(c1)S(=O)(=O)N(Cc1ccc(OC)cc1)[C@H]2CC(=O)OCC,inactive: -13.9%
15,c1ccc(Nc2ncncc2-c2ccoc2)cc1,inactive: 22.2%
16,COc1cccc(-c2ccc3ncnc(NCc4cnc(C)cn4)c3c2)c1,inactive: 0.674%
17,Fc1ccc(Nc2ncnc3ccc(-c4ccoc4)cc23)cc1,inactive: 0.533%
18,Cc1nc2n(c(=O)c1CCN1CCC(c3noc4cc(F)ccc34)CC1)CCCC2,inactive: 6.32%
19,CNCCC(Oc1ccc(C(F)(F)F)cc1)c1ccccc1 (configuration not stated),inactive
20,Cc1noc(C)c1-c1nc(NCc2ccccc2)c2ccccc2n1,inactive: 16.1%
21,C[C@@H](CN1CC(=O)NC(=O)C1)N1CC(=O)NC(=O)C1,inactive: 0.914%
22,O=c1c(-c2ccc(F)cc2)nc2cnc(N3CCOCC3)nc2n1Cc1cccs1,inactive: -2.92%
23,CC(=O)Nc1ccc(CC(=O)O)cc1,inactive: 6.37%

row,Compound,"activity change, negative = inhibition"
1,FC(F)(F)c1ccccc1-c1nc(Nc2ccncc2)c2ccccc2n1,inactive: 27.1%
2,O=c1c(-c2cccc(Cl)c2)nc2cncnc2n1C1CC1,inactive: 18.8%
3,COCC(=O)N1CCC2(CC1)CN(C(=O)Nc1cccc(F)c1)C2,inactive: 6.95%
4,O=C(O)Cc1sc(-c2ccccc2)nc1-c1ccc(Cl)cc1,inactive
5,CC(=O)OCC(=O)[C@@]12N=C(C)O[C@@H]1C[C@H]1[C@@H]3CCC4=CC(=O)C=C[C@]4(C)[C@H]3[C@@H](O)C[C@@]12C,inactive: 12.7%
6,C#CCN1C(C)=C(C(=O)OC)C(c2cccc([N+](=O)[O-])c2)C(C(=O)OCC)=C1C (configuration not stated),inactive: -2.34% [at 75.8 µM]
7,COc1ccc(C(=O)/C=C/c2ccccc2)cc1,inactive: -2.07%
8,OCc1cc(C(O)CNCCCCCCOCCCCc2ccccc2)ccc1O (configuration not stated),inactive
9,COc1ccc(-c2nc3cnc(Oc4cccc(Cl)c4)nc3n(CCC#N)c2=O)cc1,inactive: 9.1%
10,C[C@@](N)(C(=O)O)c1cccc(CC(=O)O)c1,inactive: -10.6%
11,CN(C(=O)c1cnn(-c2ncc3c(n2)-c2ccccc2CCC3)c1C1CC1)C1CCOC1 (configuration not stated),inactive: 16.2%
12,O=C(C[N+]1(CCc2ccccc2)CCOCC1)c1cccc([N+](=O)[O-])c1,inactive: 19.1%
13,Cc1csc(-c2nc3ccccc3n2C)n1,inactive: -17.2%
14,COc1ccc(CN2CCCC(c3nc(-c4ccncc4)ncc3-c3ccccc3C)C2)c(OC)c1 (configuration not stated),inactive: -6.69%
15,FC(F)(F)c1ccccc1-c1cc(NCCN2CCOCC2)ncn1,inactive: -0.311%
16,CC[C@H](C)CCCCC(=O)N[C@@H](CCN)C(=O)N[C@H](C(=O)N[C@@H](CCN)C(=O)N[C@H]1CCNC(=O)[C@H]([C@@H](C)O)NC(=O)[C@H](CCN)NC(=O)[C@H](CCN)NC(=O)[C@H](CC(C)C)NC(=O)[C@@H](CC(C)C)NC(=O)[C@H](CCN)NC1=O)[C@@H](C)O (X4-[Dab]T[Dab][Dab][Dab][dL]L[Dab][Dab]T; lactam 4-C),inactive: 16%
17,COc1cc(-c2cc(C)c3c(OC)ccc(OC)c3n2)cc2c1OCCN(C(=O)Cn1nc(C)cc1C)C2,inactive: 21.2%
18,C[C@]12C=CC(=O)C=C1[C@@H](F)C[C@@H]1[C@@H]2[C@@H](O)C[C@@]2(C)[C@H]1CC[C@]2(O)C(=O)CO,inactive
19,CC1CC2C3CCC4=CC(=O)C=C[C@@]4(C)[C@]3(F)C(O)C[C@]2(C)[C@]1(O)C(=O)CO (some centres not stated),inactive
20,COCC(=O)N1CCC[C@@]2(CCN(Cc3cc(C(F)(F)F)cc(C(F)(F)F)c3)C2)C1,inactive: -2.2%
21,Cc1c(N)nc([C@H](CC(N)=O)NC[C@H](N)C(N)=O)nc1C(=O)N[C@H](C(=O)N[C@H](C)[C@@H](O)[C@H](C)C(=O)N[C@H](C(=O)NCCc1nc(-c2nc(C(=O)NCCCCN=C(N)N)cs2)cs1)[C@@H](C)O)[C@@H](O[C@@H]1O[C@@H](CO)[C@@H](O)[C@H](O)[C@@H]1O[C@H]1O[C@H](CO)[C@@H](O)[C@H](OC(N)=O)[C@@H]1O)c1cnc[nH]1,inactive
22,COc1ccc(C(=O)c2ccc(C)cc2)c(O)c1,inactive: -4.44%
23,CC[C@@H](C)[C@@H](N)C1=N[C@H](C(=O)N[C@@H](CC(C)C)C(=O)N[C@@H](CCC(=O)O)C(=O)N[C@@H](C(=O)N[C@@H]2CCCCNC(=O)[C@@H](CC(N)=O)NC(=O)[C@@H](CC(=O)O)NC(=O)[C@@H](Cc3cnc[nH]3)NC(=O)[C@@H](Cc3ccccc3)NC(=O)[C@@H]([C@H](C)CC)NC(=O)[C@@H](CCCN)NC2=O)[C@@H](C)CC)CS1 (X2-LE[d(aIle)][dK][dOrn][dI][dF][dH][dD][dN]; lactam 4-C),inactive
